The results in this text go back to PMC8922107.

Protein sequences, listed by entry. Tags and fused reporters are not part of them. Lines headed by an entry give the natural chain unless they say otherwise; changes in a name come on top.
UniProt Q9Y5B9: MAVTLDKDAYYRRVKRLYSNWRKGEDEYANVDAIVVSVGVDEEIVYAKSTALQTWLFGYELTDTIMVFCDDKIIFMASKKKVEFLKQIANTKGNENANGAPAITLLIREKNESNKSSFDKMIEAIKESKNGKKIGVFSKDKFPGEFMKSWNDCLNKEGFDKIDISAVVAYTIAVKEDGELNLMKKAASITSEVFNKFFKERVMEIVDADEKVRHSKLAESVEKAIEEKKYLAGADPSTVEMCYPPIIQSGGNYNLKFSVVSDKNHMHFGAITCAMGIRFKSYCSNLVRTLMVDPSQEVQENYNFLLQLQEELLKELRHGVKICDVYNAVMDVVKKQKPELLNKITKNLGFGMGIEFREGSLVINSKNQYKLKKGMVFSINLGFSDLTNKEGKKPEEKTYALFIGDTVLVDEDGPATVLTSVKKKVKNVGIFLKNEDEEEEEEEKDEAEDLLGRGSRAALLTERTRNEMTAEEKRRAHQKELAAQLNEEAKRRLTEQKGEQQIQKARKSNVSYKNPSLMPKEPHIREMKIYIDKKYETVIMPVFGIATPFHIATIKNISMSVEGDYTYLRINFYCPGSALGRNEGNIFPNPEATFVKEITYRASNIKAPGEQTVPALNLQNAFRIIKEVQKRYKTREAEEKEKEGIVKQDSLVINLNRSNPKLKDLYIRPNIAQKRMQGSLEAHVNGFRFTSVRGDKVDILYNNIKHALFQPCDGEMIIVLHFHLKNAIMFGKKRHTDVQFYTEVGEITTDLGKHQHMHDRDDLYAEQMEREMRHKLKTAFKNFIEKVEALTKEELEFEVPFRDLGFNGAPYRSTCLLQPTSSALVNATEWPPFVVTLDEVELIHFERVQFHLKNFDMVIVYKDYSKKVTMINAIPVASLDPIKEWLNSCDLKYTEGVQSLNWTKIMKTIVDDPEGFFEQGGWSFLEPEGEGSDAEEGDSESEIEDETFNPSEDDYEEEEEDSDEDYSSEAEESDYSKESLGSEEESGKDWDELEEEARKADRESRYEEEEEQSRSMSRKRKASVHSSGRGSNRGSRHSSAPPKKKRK
UniProt Q08945: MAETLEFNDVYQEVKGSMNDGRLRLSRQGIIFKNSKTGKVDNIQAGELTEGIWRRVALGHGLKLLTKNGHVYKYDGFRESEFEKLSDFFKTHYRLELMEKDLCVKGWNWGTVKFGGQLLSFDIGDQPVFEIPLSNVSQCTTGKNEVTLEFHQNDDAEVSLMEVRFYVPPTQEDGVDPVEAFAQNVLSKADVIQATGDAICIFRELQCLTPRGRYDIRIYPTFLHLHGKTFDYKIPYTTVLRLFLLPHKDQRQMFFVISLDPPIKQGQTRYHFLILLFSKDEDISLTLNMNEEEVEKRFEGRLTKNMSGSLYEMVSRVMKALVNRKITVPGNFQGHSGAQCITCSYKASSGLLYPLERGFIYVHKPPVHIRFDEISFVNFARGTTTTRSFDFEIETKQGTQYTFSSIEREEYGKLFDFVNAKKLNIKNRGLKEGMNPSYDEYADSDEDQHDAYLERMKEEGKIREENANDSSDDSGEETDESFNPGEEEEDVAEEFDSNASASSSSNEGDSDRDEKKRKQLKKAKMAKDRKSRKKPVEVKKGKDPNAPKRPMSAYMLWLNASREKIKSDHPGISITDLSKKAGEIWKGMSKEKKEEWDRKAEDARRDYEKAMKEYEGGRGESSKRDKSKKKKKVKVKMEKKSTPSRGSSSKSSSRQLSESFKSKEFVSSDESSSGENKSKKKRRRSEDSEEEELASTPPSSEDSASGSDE
UniProt P14618: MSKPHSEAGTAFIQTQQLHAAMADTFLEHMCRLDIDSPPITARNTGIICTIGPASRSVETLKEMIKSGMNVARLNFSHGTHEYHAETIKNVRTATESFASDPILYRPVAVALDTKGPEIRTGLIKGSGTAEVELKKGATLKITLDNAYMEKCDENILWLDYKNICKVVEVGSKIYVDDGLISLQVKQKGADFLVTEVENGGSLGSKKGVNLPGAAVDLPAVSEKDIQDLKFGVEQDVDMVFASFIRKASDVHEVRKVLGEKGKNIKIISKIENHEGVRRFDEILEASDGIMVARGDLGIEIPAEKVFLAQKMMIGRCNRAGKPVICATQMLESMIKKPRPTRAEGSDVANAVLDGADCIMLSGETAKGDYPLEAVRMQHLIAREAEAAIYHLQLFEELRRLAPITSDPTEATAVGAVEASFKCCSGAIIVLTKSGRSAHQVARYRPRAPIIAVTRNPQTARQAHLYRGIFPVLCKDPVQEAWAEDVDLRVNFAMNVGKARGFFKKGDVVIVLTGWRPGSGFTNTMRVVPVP
UniProt P31749: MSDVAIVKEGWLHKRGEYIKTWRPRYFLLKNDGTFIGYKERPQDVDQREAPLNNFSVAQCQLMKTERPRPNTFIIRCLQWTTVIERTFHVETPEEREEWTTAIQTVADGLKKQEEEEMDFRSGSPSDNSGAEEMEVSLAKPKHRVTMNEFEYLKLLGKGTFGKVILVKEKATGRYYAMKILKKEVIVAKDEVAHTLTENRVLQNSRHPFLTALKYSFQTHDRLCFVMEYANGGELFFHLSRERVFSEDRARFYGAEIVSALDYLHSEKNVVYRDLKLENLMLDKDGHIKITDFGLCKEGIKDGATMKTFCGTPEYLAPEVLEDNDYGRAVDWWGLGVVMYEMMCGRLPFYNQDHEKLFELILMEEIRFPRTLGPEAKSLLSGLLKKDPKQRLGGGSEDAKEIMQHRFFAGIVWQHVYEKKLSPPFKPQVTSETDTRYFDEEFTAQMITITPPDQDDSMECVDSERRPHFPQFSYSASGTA

No constants are given. Whether binding was seen depends on the method and setting. In cells and extracts the contact can be indirect. Some binding calls cover weakened binding; strength is not graded here.

For assay [1], the target named is HA-SPT16, expressed in HEK293T cells (UniProt Q9Y5B9). Kind of assay: co-IP; HEK293T cells co-transfected with the two tagged proteins, with or without etoposide (200 x 10^-6 M, 1 h); anti-Flag antibody where stated.
In assay [2] the target is Flag-SPT16, expressed in HEK293T cells (UniProt Q9Y5B9). Described as above.
For assay [3], the target named is SFB-SSRP1 WT, expressed in HEK293T cells (human) (UniProt Q08945). Described as above.
Assay [4] deals with Flag-SPT16, expressed in HEK293T cells (UniProt Q9Y5B9). Nature of the assay: condition: only precipitated complex treated with CIP; co-IP; as a10, the precipitated complex of SSRP1 or SPT16 then treated with calf-intestinal alkaline phosphatase (CIP).
The target of assay [5] is SFB-SSRP1 WT, expressed in HEK293T cells (human) (UniProt Q08945). The description is as above.
For assay [6], the target named is Flag-PKM2 WT, expressed in HEK293T cells (UniProt P14618). Kind of assay: co-IP; HEK293T cells co-transfected with the two tagged proteins, with or without etoposide (200 x 10^-6 M, 1 h); anti-Flag antibody where stated.
Assay [7] addresses Flag-tagged SPT16 (Flag-SPT16), expressed in U251 cells (UniProt Q9Y5B9). Kind of assay: co-IP; U251 cells transfected with Flag-SPT16 or SFB-SSRP1, etoposide (200 x 10^-6 M) for indicated time; whole-cell lysates prepared without sonication.
The target of assay [8] is SFB-SSRP1 WT (S peptide-flag-streptavidin binding peptide-tagged SSRP1), expressed in U251 cells (human) (UniProt Q08945). The description is as above.

For “Flag-PKM2 WT, expressed in HEK293T cells (from UniProt P14618 1-531) (enzyme)”, the binding result in assay [1] is “binds”.
Same read-out and setting: under “Flag-PKM2 S222A, expressed in HEK293T cells (from UniProt P14618 1-531) (enzyme)” stands “no binding”.
Turning to “HA-PKM2 WT, expressed in HEK293T cells (from UniProt P14618 1-531) (enzyme)”, the binding entry in assay [2] was “binds”; in assay [3], “binds”; in assay [4] it was “no binding”; in assay [5], “no binding”.
For the substance “HA-AKT1, expressed in HEK293T cells (from UniProt P31749 1-480) (enzyme)”, in assay [6], the binding entry is “binds”.
Turning to “HA-PKM2 S222A, expressed in HEK293T cells (from UniProt P14618 1-531) (enzyme)”, in assay [3], the binding result is reported as “no binding”.
Regarding “PKM2, endogenous in U251 cells (from UniProt P14618 1-531) (enzyme)”, the binding entry in assay [7] and in assay [8] was “binds” each time.
